Publication PMC4336329 (PLoS ONE, 2015)
Screen size: about 310,000 compounds; about 14,000 (4.5%) showed an effect of 50% or more. Effects have a minus sign here. The list shows a part of the results.

biological target: human ether-à-go-go-related gene (hERG) potassium channel (human, UniProt Q12809); experiment: primary screen, population patch clamp on CHO cells stably expressing hERG
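Further: peak tail current of the secondary pulse compared with the same well before compound.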

Chain of human ether-à-go-go-related gene (hERG) potassium channel (Q12809 whole entry, looked up): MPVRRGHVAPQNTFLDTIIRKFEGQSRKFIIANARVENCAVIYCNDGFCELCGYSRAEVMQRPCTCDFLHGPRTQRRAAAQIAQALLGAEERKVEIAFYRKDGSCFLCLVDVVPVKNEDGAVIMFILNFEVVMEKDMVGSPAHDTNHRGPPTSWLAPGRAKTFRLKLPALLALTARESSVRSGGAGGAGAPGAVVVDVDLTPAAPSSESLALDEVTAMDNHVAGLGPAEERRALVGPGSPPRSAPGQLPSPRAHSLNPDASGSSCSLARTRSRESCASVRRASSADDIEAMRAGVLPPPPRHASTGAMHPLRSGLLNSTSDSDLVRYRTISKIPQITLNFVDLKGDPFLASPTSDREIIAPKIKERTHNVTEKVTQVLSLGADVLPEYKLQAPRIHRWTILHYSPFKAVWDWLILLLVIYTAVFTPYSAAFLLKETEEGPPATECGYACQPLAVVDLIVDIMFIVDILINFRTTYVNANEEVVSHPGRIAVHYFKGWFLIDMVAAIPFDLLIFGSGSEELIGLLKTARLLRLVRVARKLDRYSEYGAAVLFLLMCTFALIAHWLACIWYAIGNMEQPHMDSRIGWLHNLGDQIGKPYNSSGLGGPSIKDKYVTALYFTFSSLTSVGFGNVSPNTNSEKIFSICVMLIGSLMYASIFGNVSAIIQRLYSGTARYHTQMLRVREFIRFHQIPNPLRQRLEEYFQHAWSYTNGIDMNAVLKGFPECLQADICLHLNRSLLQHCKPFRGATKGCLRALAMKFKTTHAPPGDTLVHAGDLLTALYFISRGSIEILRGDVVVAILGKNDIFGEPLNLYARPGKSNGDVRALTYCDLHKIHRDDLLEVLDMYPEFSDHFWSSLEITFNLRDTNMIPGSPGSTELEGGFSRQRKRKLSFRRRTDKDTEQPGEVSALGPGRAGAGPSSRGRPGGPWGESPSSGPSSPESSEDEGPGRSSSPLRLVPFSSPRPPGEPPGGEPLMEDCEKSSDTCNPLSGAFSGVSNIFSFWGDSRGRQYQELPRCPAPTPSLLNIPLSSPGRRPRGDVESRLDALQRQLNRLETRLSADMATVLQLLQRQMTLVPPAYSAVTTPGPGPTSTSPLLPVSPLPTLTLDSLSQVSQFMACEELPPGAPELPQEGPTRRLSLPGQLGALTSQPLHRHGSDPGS

Row | Structure (SMILES) | hERG current change (%, negative = inhibition) at 10uM [%]
1 | COC(=O)CCCC(=O)N1CCOCCN(C(=O)CCCC(=O)OC)CCOCC1 | 3.12
2 | CCn1ncc([N+](=O)[O-])c1C(=O)Nc1cc(C)on1 | -0.655
3 | CCCCN(C(=O)c1cc(-c2ccco2)nc2ccccc12)c1c(N)n(CCC)c(=O)[nH]c1=O | 10.1
4 | O=C(Nn1cnnc1)c1cc(Br)ccc1Cl | 14.5
5 | Cc1cccc(OCC(=O)Nc2nnc(-c3ccco3)s2)c1 | -1.94
6 | O=C(NCCCc1ccccc1)c1ccc(Br)o1 | -37.8
7 | N#Cc1c(N)n(CCOC(=O)c2cccc(Br)c2)c2nc3ccccc3nc12 | 6.57
8 | OC(COc1ccc2cc(Br)ccc2c1)CN1CCCC1 (stereo not drawn) | -70.2
9 | NC(=O)c1ccccc1NC(=O)Nc1ccccc1Cl | 11.8
10 | CCN1CCN(S(=O)(=O)c2cccc([N+](=O)[O-])c2)CC1 | 20.2
11 | [O-]/C(=C(\C(=S)NCc1ccccc1)[n+]1ccccc1)c1ccc(Cl)s1 | -16.1
12 | CC(=O)Nc1nnc(-c2c(-c3c(Cl)cccc3Cl)noc2C)o1 | -4.34
13 | Cc1ccc2cc(C=O)c(N(C)C)nc2c1 | 7.52
14 | CNC(=S)Nc1ccc2nc(C)oc2c1 | 21.3
15 | CC(CNC(=O)c1ccc2c(c1)OCO2)c1ccc([N+](=O)[O-])cc1 (stereo not drawn) | 17.2
16 | Cc1ccn2c(CNC(C)c3cn(C)nc3C)c(C(=O)N3CCCCCC3)nc2c1 (stereo not drawn) | 0.193
17 | Cn1c(Cn2nnc3ccccc32)nnc1SCC(=O)N1CCc2ccccc21 | -21.9
18 | Cc1nc(-c2ccc(Cl)cc2)sc1C1(C)CC(c2ccc(OC(F)(F)F)cc2)=NO1 (stereo not drawn) | 10.3
19 | COc1ccc(-c2nc(C=O)cs2)cc1 | -4.78
20 | CCC(C(=O)O)n1nc(-c2ccccc2)c2cc(Cl)ccc21 (stereo not drawn) | 13.8
21 | O=C(NCCN1CCOCC1)c1cc2cc(Br)ccc2oc1=O | -9.42
22 | CCOc1ccc(-n2c(SCc3ccc([N+](=O)[O-])cc3)nnc2-c2ccc(OC)cc2)cc1 | 2.54
23 | COc1ccc(Nc2nc(C)nc3sc4c(c23)CCC4)cc1O | 19.7

Row | Structure (SMILES) | hERG current change (%, negative = inhibition) at 10uM [%]
24 | Cc1[nH]c2ccc(C(=O)NCCCN(C)C3CCCCC3)cc2c1C | -22.6
25 | CCCCCc1ccc(-c2cn(CN3C(=O)c4ccccc4C3=O)nn2)cc1 | -6.83
26 | O=C(Nc1ccc2c(c1)OC1(CCCC1)O2)C1CC1 | 3.79
27 | Cc1ccc(-c2nnn(CCC(=O)Nc3ccc4c(c3)OCO4)n2)cc1 | -0.895
28 | CCOc1ncccc1C(=O)OCC(=O)Nc1cccc(C(C)=O)c1 | -11.3
29 | CC1(c2ccc(Cl)cc2)NC(=S)N2C1NC(=S)N2c1ccccc1 (stereo not drawn) | -10.5
30 | Cc1ccc(C)c(N(C(=O)CNC(=O)c2ccco2)C(C(=O)NC2CCCC2)c2ccncc2)c1 (stereo not drawn) | 8.74
31 | Cc1ccccc1OC(C)C(=O)NC1CCCC1 (stereo not drawn) | -2.63
32 | CCOC(=O)N1CCN(S(=O)(=O)c2ccc(C(=O)Nc3sc4c(c3C#N)CC(C)(C)NC4(C)C)cc2)CC1 | 14.6
33 | COc1ccccc1CC(=O)Nc1ccc2[nH]ncc2c1 | 1.58
34 | NC(=O)c1cccc(CC(=O)c2ccccc2)c1 | 7.23
35 | NC(=O)CSc1nnc(CSc2ncccn2)n1-c1ccccc1 | 11.3
36 | CN(CCC#N)C(=O)CSc1nc2scc(-c3ccccc3)c2c(=O)[nH]1 | -12.6
37 | Cc1cc(NC(=O)c2c(C)noc2C)no1 | 15.6
38 | CSc1cccc(NC(=O)c2cc(S(=O)(=O)N3CCCC3)cn2C)c1 | -4.42
39 | COC(=O)C1=C(C)N(Cc2ccco2)C(=O)N[C@@H]1c1ccccc1 | -4.74
40 | O=C(CN1C(=O)CSc2ccc(S(=O)(=O)N3CCOCC3)cc21)NCc1ccc(Cl)cc1 | -48.6
41 | COc1cccc(C(=O)NC(=S)Nc2ccccc2N2CCCCC2)c1 | 22.6
42 | COC(=O)c1c(NC(C)=O)sc(C(=O)N2CCOCC2)c1C | 16.9
43 | CCOC(=O)CC(=O)CSc1nc(N)c(C#N)c(-c2ccc(Cl)cc2)c1C#N | 3.56
44 | Cn1c(=O)c2c(SCC(=O)NCc3ccco3)nc(CC(C)(C)C)nc2n(C)c1=O | -57.4
45 | COc1ccc(CCNC(=S)Nc2cccc3ccccc23)cc1 | -4.42
